# Laboratory results from PubChem BioAssay AID1745853 (National Center for Advancing Translational Sciences (NCATS), 2022).
# Some of the results follow. These are further read-outs of the screen, such as a control signal, another cell line or another target. No call is given for them.
# Experiments:
# Test in all cases: Primary Screen for Target Class Profiling of Small Molecule Inhibitors of Methyltransferases
# [1] = target: Glycine N-methyltransferase (Homo sapiens) (UniProt Q14749); conditions: purified enzyme, MTase-Glo SAH luminescence; measured here: GNMT inhibition; at 40 µM; stronger effect = lower value
# Source text: (§1) PI: Matthew D. Hall Ph.D. and Quinlin M. Hanson Ph.D.
# (§2) National Center for Advancing Translational Sciences (NCATS)
# (§3) National Institute of Health (NIH), Rockville, MD
# (§4) Target class profiling (TCP) is a chemical biology approach amenable to investigating understudied biological targets. TCP is achieved by developing a generalizable assay platform and applying it to screen a curated set of compound libraries against representative members of a target class. Small molecule methyltransferases (SMMTase) are a subclass of methyltransferase that act on metabolites to modulate signaling pathways, metabolize xenobiotics, or balance the available methyl pool. We screened four curated libraries totaling 27,574 unique compounds against the SMMTases nicotinamide N-methyltransferase (NNMT), phenylethanolamine N-methyltransferase (PNMT), histamine N-methyltransferase (HNMT), glycine N-methyltransferase (GNMT), catechol O-methyltransferase (COMT), and guanidinoacetate N-methyltransferase (GAMT). The data generated by this TCP can be leveraged for informed tool molecule development. For example, in the associated publication we identified a chemotype of HNMT-selective inhibitors. Additionally, we identified a putative SMMTase-selective inhibitor with potential as a tool molecule for studying broader methyltransferase biology.
# (§5) High-through put screening assays were developed at the National Center for Advancing Translational Science (NCATS) for the enzymes NNMT, PNMT, HNMT, GNMT, COMT, and GAMT. Enzymatic activity was measured as a function of SAM cofactor conversion using the MTase Glo kit (Promega) for all enzymes. All assays were performed in 1536-well format with substrates and SAM concentrations at KM values. Enzyme concentration and assay timing were optimized for 10-20% SAM conversion. Initial screening of 27,574 compounds was done as single-point assays using the highest compound concentration (40 uM). […] These compounds were replated in 11-point dose response and assayed against NNMT, PNMT, HNMT, GNMT, COMT, GAMT, and a counter-assay. The IC50 and efficacy (maximal response) values were determined for each dose-response curve. These values are also accounted for in the area under the curve (AUC) values.
# (§6) PROTOCOL TABLE (as described by Inglese J, Shamu CE and Guy RK. 2007)
# (§7) SEQUENCE No. (e.g., 1, 2, 3, etc.); […] (e.g., Cells, Incubation, Reagent, etc.); VALUE; DESCRIPTION.
# (§8) 1; Reagent; 2 uL; SMMTase Enzyme (2x) in reaction buffer, columns 1- 48.
# (§9) 2; Reagent; 1 uL; SAM (4x) in reaction buffer, columns 1-48.
# (§10) 3; Controls; 23 nL; DMSO in column 4; sinefungin in DMSO (0 uM - 40 uM) in 7-point 1:2 dilution series (n = 2) in column 2.
# (§11) 4; Compounds; 23 nL; Columns 5-48.
# (§12) 5; Reagent; 1 uL; Substrate (4x) in reaction buffer, columns 2-48.
# (§13) 6; Time; 20-30 min; Incubation.
# (§14) 7; Reagent; 1 uL; MTase-Glo reagent (5X), columns 1-48.
# (§15) 8; Time; 30 min; Incubation.
# (§16) 9; Reagent; 5 uL; MTase-Glo Detection reagent, columns 1-48.
# (§17) 10; Time; 30 min; Incubation, luminescence evolution.
# (§18) 11; Detection; Luminescence; ViewLux uHTS Microplate Imager (PerkinElmer).
# (§19) NOTES (numbers refer to Sequence numbers above)
# (§20) 1, 2, 5. White Medium Binding Greiner 1536-well plates (Cat #789175-F, Greiner Bio-One, Monroe, NC); Reaction buffer: 50 mM Tris, pH 8.0, 3 mM MgCl2, 1 mM EDTA, 50 mM NaCl, 1 mM DTT, and 0.1 mg/mL BSA. Evaporation was prevented by covering assay plates with metal lids containing holes to allow gas diffusion.
# (§21) 1. Six SMMTase were profiled: HNMT, GNMT, PNMT, COMT, NNMT, GAMT
# (§22) 5. The corresponding substrate was used for each enzyme: HNMT - 5.3 uM Histamine; GNMT - >500 uM Glycine; PNMT - 16.2 uM Norephinephrine; COMT - 13.7 uM Norephinephrine; NNMT - 3.8 uM Nicotinamide; GAMT - 2.5 uM Guanidinoacetate.6, 8, 10. Room temperature
# (§23) 6. Final reaction conditions: 10 nM COMT, 5 uM SAM, 15 uM norepinephrine, 50 mM Tris, pH 8.0, 3 mM MgCl2, 1 mM EDTA, 50 mM NaCl, 1 mM DTT, and 0.1 mg/mL BSA; refer to tables 2 and S1 for specific timing.
# 8. […]
# [2] = target: Guanidinoacetate N-methyltransferase (Homo sapiens) (UniProt Q14353); conditions: purified enzyme, MTase-Glo SAH luminescence; measured here: GAMT inhibition; at 40 µM; stronger effect = lower value
# Source text: as §1, §2, §3, §4, §5, §6, §7, §8, §9, §10, §11, §12, §13, §14, §15, §16, §17, §18, §19, §20, §21, §22, §23
# 8. […]
# [3] = target: Histamine N-methyltransferase (Homo sapiens) (UniProt P50135); conditions: purified enzyme, MTase-Glo SAH luminescence; measured here: HNMT inhibition; at 40 µM; stronger effect = lower value
# Source text: as §1, §2, §3, §4, §5, §6, §7, §8, §9, §10, §11, §12, §13, §14, §15, §16, §17, §18, §19, §20, §21, §22, §23
# 8. […]
# [4] = target: Nicotinamide N-methyltransferase (Homo sapiens) (UniProt P40261); conditions: purified enzyme, MTase-Glo SAH luminescence; measured here: NNMT inhibition; at 40 µM; stronger effect = lower value
# Source text: as §1, §2, §3, §4, §5, §6, §7, §8, §9, §10, §11, §12, §13, §14, §15, §16, §17, §18, §19, §20, §21, §22, §23
# 8. […]
# [5] = target: Phenylethanolamine N-methyltransferase (Homo sapiens) (UniProt P11086); conditions: purified enzyme, MTase-Glo SAH luminescence; measured here: PNMT inhibition; at 40 µM; stronger effect = lower value
# Source text: as §1, §2, §3, §4, §5, §6, §7, §8, §9, §10, §11, §12, §13, §14, §15, §16, §17, §18, §19, §20, §21, §22, §23
# 8. […]
# % is scaled to controls: 0 for no effect and ±100 for the full control effect.
Compound,"activity change, negative = inhibition [1]","activity change, negative = inhibition [2]","activity change, negative = inhibition [3]","activity change, negative = inhibition [4]","activity change, negative = inhibition [5]"
COCCN1C(=O)CC[C@]2(C(=O)NCc3cccs3)CCCC[C@@H]12,-0.369%,-4.04%,0.336%,-1.45%,-1.95%
COc1ccc(CN2C(=O)c3ccc(-c4ccco4)n3CC2(C)C(=O)NC2CCCCC2)c(OC)c1OC (stereo not given),-7.06%,4.05%,-4.21%,-3.21%,-1.78%
C[S+](=O)([O-])N1CC2(CCCCN2Cc2ccccn2)Cc2ccccc21 (stereo not given),-7.44%,-6.15%,-4.78%,-10.8%,2.93%
Cc1ncc(NC(=O)c2ccc(CN3CCN(C)CC3)c(C(F)(F)F)c2)cc1Nc1nccc(-c2cccnc2)n1,-1.13%,23.7%,-2.17%,7.03%,3.9%
Cc1ccc(Cn2nc3n(Cc4ccccc4)c(=O)c4ccc(C(=O)NC(C)C)cc4n3c2=O)cc1,6.6%,0%,6.73%,8.35%,5.96%
CCC(C)NC(=O)c1ccc2c(=O)n(C)c3nnc(SCC(=O)Nc4ccc(F)cc4)n3c2c1 (stereo not given),-0.434%,4.48%,-1.22%,1.52%,1.9%
CCCn1c(=O)c2cc(Cl)ccc2n2c(SCC(=O)Nc3cc(OC)cc(OC)c3)nnc12,7.36%,0%,10.6%,0.709%,9.98%
CC1(C(=O)NC2CCCCC2)Cn2c(cc3sccc32)C(=O)N1Cc1ccccc1F (stereo not given),-0.882%,0.378%,2.43%,-0.905%,2.58%
COc1ccccc1CCNC(=O)c1cc2n(n1)CC(C)(C(=O)NC1CCCCCC1)N(C)C2=O (stereo not given),3.54%,0%,4.09%,1.16%,3.38%
CN1C(=O)c2cc(C(=O)NCCCN3CCCCC3)nn2CC1(C)C(=O)NC1CCCCCC1 (stereo not given),2.08%,2.33%,-2.77%,2%,-0.502%
Cc1ccc(Cl)c(Nc2ccccc2C(=O)O)c1Cl,-10.2%,12.8%,11.5%,-11.7%,0.493%
Cc1ccc(CNC(=O)CCc2nnc3n(Cc4ccccc4)c(=O)c4ccccc4n23)cc1,-6.53%,0.176%,9.34%,2.98%,3.16%
COc1ccc2c(c1)c(NC(C)=O)c1n2CC(C)(C(=O)NC2CCCC2)N(Cc2cccs2)C1=O (stereo not given),-9.94%,0.111%,0.908%,5.33%,-0.577%
CC(=O)OC1C(OC(=O)c2ccccc2)C2C(=C(C)CCC2(C)C)C23CCC(C)(C2)C(=O)CC13 (stereo not given),3.21%,-1.73%,6.29%,-15.6%,2.45%
COc1cccc(COC2CN(CCc3ccccc3)C(=O)CN(C(=O)CN3CCOC3=O)C2)c1 (stereo not given),-5.46%,-5.96%,-3.55%,-10.3%,-11%
CN1C(=O)c2ccccc2-n2c(nc3ccccc3c2=O)/C1=C/c1ccccc1,3.6%,6.55%,5.99%,-9.55%,5.92%
Cc1noc(-c2cn(C3CCN(C(=O)c4ccc(C)s4)CC3)nn2)n1,-4.21%,-1.54%,0.947%,-4.42%,12.1%
CC(=O)O[C@@H](C[C@@H]1C=C(C)C(=O)O1)[C@H](C)[C@H]1CCC2[C@@]3(C)CC[C@H](O[C@@H]4O[C@H](CO)[C@@H](O)[C@H](O)[C@H]4O[C@@H]4O[C@@H](C)[C@H](O)[C@@H](O)[C@H]4O)C(C)(C)C3CC[C@@]2(C)[C@@]12COC(=O)C2 (stereo not given in full),-7.31%,-7.53%,0.314%,-18.1%,-12.1%
COc1ccccc1NC(=O)Cn1nc2n(Cc3ccc(C)cc3)c(=O)c3ccccc3n2c1=O,2.72%,0.932%,6.5%,-1.4%,2.12%
COC(=O)c1ccc([C@@H]2Nc3c(OC)cc(OC)cc3[C@@H]3C=CC[C@@H]32)cc1,-5.33%,0%,2.08%,-12.5%,-7.28%
CC(C)OCCCNC(=O)CCc1nnc2ccc(NCc3ccccc3Cl)nn12,-4.39%,1.03%,0.936%,-3.65%,-1.58%
CN(C)CC(O)c1cc2n(n1)CCCN(C(=O)c1cccn1C1CC1)C2 (stereo not given),-3.85%,-3.37%,-2.33%,-3.38%,-2.13%
CC1(C(=O)NC2CCCCCC2)Cn2c(ccc2-c2ccco2)C(=O)N1Cc1cccnc1 (stereo not given),-3.72%,0.18%,6.26%,0.946%,0.511%
CCCn1c(=O)c2ccc(C(=O)NC3CCCC3)cc2n2c(=O)n(C(C)C(=O)c3ccc(C)c(C)c3)nc12 (stereo not given),-1.58%,3.35%,-0.24%,-4.98%,-3.35%
Cc1ccc(CN2CC(=O)N(Cc3ccc(F)cc3)c3ccccc3S2(=O)=O)cc1,7.58%,0%,12.6%,-8.63%,-3.56%
CCCNC(=O)N1CCOC[C@H](Oc2ccc(C(F)(F)F)cn2)C1,-4.05%,-3.77%,-1.54%,-11.9%,-9.93%
COC(=O)c1ncn2c1C(=O)N(Cc1ccco1)C(C)(C(=O)NC1CCCCCC1)C2 (stereo not given),3.31%,0%,8.11%,6.63%,4.7%
O=S(=O)(Cc1cccc(Cl)c1)NCCc1noc(-c2ccccc2)n1,-5.08%,-5.23%,-4.92%,-10.7%,-7.91%
CC1(C(=O)NC2CCCCCC2)Cn2c(ccc2-c2ccco2)C(=O)N1Cc1cccc(Cl)c1 (stereo not given),-1.69%,0%,1.92%,-3.59%,-1.84%
O=C(NCc1nnc2n1CCCCC2)C1CC2(CCNCC2)CN1 (stereo not given),1.18%,0.891%,0.798%,3.25%,-0.279%
